The other results are listed elsewhere or left out. At the low end of the ranking, values are background and their order means little.

This assay has as its target SIX1-Q177R homeodomain (UniProt Q15475). Briefly: universal protein binding microarray. The settings on record: Universal all-10-mer PBM (8x60K, AMADID 030236), 300 nM GST-tagged protein, Alexa Fluor 488 anti-GST; buffer, salt, pH and temperature not stated; high values mean tight binding; most listed sequences are background and not binding sites; double strand, one strand shown.
Consider AAGAGTGC, for which the binding signal is -0.0999 E-score. Next, GGGGTTGA: 0.2 E-score; TAAACGAA: -0.25 E-score; ATGGCATA: -0.336 E-score. On to CACGCGGC, for which the binding signal came to 0.137 E-score. Turning to CTCTATCA, the binding signal is -0.179 E-score.

Turning to CTCGGAGA, the binding signal was -0.0963 E-score. Next, TCACCCCA: 0.184 E-score. Next, CTGCGCTA: -0.033 E-score; CTGACCAA: 0.0224 E-score; GGTACGTA: 0.0836 E-score. Next, CTATGAAG: -0.0782 E-score. Regarding AACAATCC, the binding signal was -0.104 E-score. Next, AGTTCACA: 0.0771 E-score; CGTAGAGC: -0.0705 E-score. The result for AGTTTGCG reads -0.0696 E-score; that for GATAGATA, -0.109 E-score. The result for CGTCGATA reads -0.0333 E-score. For ATGTTCCA, the binding signal was -0.209 E-score.

In the case of CTGGTTTA, the binding signal was -0.0205 E-score. Next, GGGCTCCA: -0.144 E-score; GAGAAATA: -0.115 E-score. The result for AAAAACGA reads -0.0811 E-score. In the case of AAATCGGA, the binding signal is -0.218 E-score. Consider AGTTTGAG, for which the binding signal was -0.0463 E-score. On to ATATCACA, for which the binding signal stood at 0.126 E-score. With ACAGGTCT, the binding signal was -0.196 E-score. For the sequence CGCGGTGC, the binding signal stood at 0.21 E-score. The result for AATCACAT reads -0.116 E-score; that for TCACCTCA, -0.0478 E-score; that for GTGGCAAA, -0.042 E-score. With CAAAGCCG, the binding signal is -0.114 E-score. Turning to GCGCACCA, the binding signal came out at 0.136 E-score.

For CGCCATCA, the binding signal is -0.135 E-score.

With AGTGGCTA, the binding signal is -0.122 E-score. Next, CAAGCGGC: -0.11 E-score; CTTTCTAA: -0.136 E-score. Turning to AACCTTCC, the binding signal was -0.0229 E-score. As for AATCTTCC, the binding signal is -0.222 E-score. For the sequence TCGGAGAA, the binding signal was 0.0697 E-score. Turning to GCCTGTGA, the binding signal is -0.0117 E-score. The result for ACCAACAA reads -0.0328 E-score; that for TCGAGGCA, -0.176 E-score; that for TAGCTCAA, 0.0432 E-score. Turning to AGCTAAAG, the binding signal is -0.154 E-score. Take ACAGTTGC: the binding signal was -0.276 E-score.

As for CGGGGCGC, the binding signal was 0.00579 E-score. Next, CATATGCG: 0.0479 E-score; AAGGGCTC: -0.228 E-score; CAGAAGAC: -0.126 E-score. On to GATACAGC, for which the binding signal was -0.133 E-score. The result for GAATTGGA reads 0.128 E-score; that for GCGCATCC, -0.0903 E-score; that for GCGTATCA, 0.0725 E-score. The result for GACAAGGC reads -0.0622 E-score; that for ATATCAGG, -0.0998 E-score. Regarding AAAATTAC, the binding signal is -0.0111 E-score. For CATTAGCG, the binding signal was -0.172 E-score. Take ATCCCTCG: the binding signal is 0.142 E-score. The result for AAGTTTCC reads -0.256 E-score; that for CGACGTTA, -0.134 E-score; that for CCATTTCC, -0.00773 E-score.

For the sequence AAAGGGAG, the binding signal amounted to 0.193 E-score. In the case of CACCTAGC, the binding signal is 0.168 E-score.

In the case of CATGCTGG, the binding signal worked out at 0.0148 E-score. Regarding GTCGGGCA, the binding signal is -0.0379 E-score. The result for ATTAATTA reads -0.179 E-score.

As for AATGCTTC, the binding signal is -0.201 E-score. Next, CCCATCAC: 0.129 E-score; ACTCACAA: -0.0889 E-score; GAGTTGGC: 0.00784 E-score.

Consider CCGAGTTA, for which the binding signal is -0.0155 E-score.

Turning to CAAAAGTA, the binding signal was -0.147 E-score.

As to AGTGTAGA, the binding signal worked out at 0.369 E-score. Consider ACGTCGAT, for which the binding signal was -0.0351 E-score. The result for AATGACCT reads -0.00226 E-score; that for ACGCTAAC, 0.136 E-score. The result for CCGGCCGC reads 0.0732 E-score. Turning to CCTTCCTC, the binding signal was -0.0894 E-score.

For AAGGATCA, the binding signal came to 0.0617 E-score. The result for GGTGATCA reads 0.144 E-score; that for AGGTACTC, 0.166 E-score; that for GCTTCGAC, -0.16 E-score. Next, GCTGGTCA: -0.136 E-score. The result for CCATTCTC reads -0.147 E-score.

In the case of CGATGATC, the binding signal was -0.0224 E-score. The result for AAAATCTC reads -0.149 E-score; that for CACGCCCA, 0.338 E-score.

ACGCCCCG: the binding signal was determined as 0.115 E-score. Regarding CGCCCCAG, the binding signal was -0.0406 E-score.

As for CCCTCAAA, the binding signal stood at 0.00766 E-score. ACGCTCAT: the binding signal was -0.184 E-score. Consider CTCGAAGA, for which the binding signal is -0.0688 E-score. Next, CCTGTACC: 0.09 E-score; CCCGCACA: 0.228 E-score. The result for GCCATCCA reads -0.0393 E-score; that for CCGAGGTC, 0.105 E-score; that for CTGCCTTA, -0.0855 E-score.

For the sequence ACACGTGT, the binding signal stood at 0.455 E-score. The result for ATATATCA reads -0.112 E-score.

Turning to CTCGTTTA, the binding signal came out at 0.00825 E-score.

Regarding CGTTGCAA, the binding signal was -0.167 E-score. Take CAGGAGCA: the binding signal is -0.113 E-score.

With ACCCGTTC, the binding signal worked out at 0.0521 E-score. Regarding GGCACACC, the binding signal was found to be 0.351 E-score. As for AAATGGCG, the binding signal is -0.156 E-score.

For CGTGGTAA, the binding signal is 0.129 E-score. Next, AACCCCAT: 0.169 E-score; ACGCGGGC: 0.164 E-score; ATATCATA: -0.143 E-score. Next, GGCCAGAC: 0.00856 E-score. Regarding CAATAGAA, the binding signal was -0.16 E-score.

Take GAGCTCTA: the binding signal was -0.0617 E-score.

With ACTTCTAT, the binding signal is -0.0707 E-score. Regarding GCTTGTTA, the binding signal is -0.203 E-score.

For AGCCTTAC, the binding signal is -0.178 E-score.

In the case of CTCATACC, the binding signal is -0.071 E-score. Consider AGTAGCAG, for which the binding signal was -0.041 E-score. Next, AACAAGAC: -0.0263 E-score; GATCAAAA: -0.164 E-score; AGCGGGGC: -0.0416 E-score. On to GGGGACGA, for which the binding signal is 0.042 E-score. Regarding CATTCGTA, the binding signal was -0.0121 E-score.

As to CACAGATG, the binding signal was -0.147 E-score. Next, GTGCGGCA: -0.12 E-score; CTTACGAA: -0.0914 E-score. With ATTCTTAC, the binding signal is -0.111 E-score. The result for CGCAACCC reads -0.00212 E-score.

As for ATATCAAA, the binding signal was -0.114 E-score.

In the case of CCAGGGGA, the binding signal was -0.00112 E-score. Turning to TCTCACCA, the binding signal is 0.016 E-score. Take AATAATCA: the binding signal was -0.165 E-score.

Consider GGTAGGAC, for which the binding signal amounted to 0.0696 E-score. The result for GATCGAAA reads -0.16 E-score; that for AACATGAC, -0.0993 E-score.

For the sequence AGTATCGC, the binding signal was 0.136 E-score. For CTCTCCAA, the binding signal came out at 0.0708 E-score.

As to AAGCAAGA, the binding signal is -0.209 E-score. The result for AATGAGTC reads -0.0332 E-score; that for AGCTCCTG, -0.123 E-score. As for AACCGCGA, the binding signal is 0.0519 E-score. The result for ACACGGAG reads 0.369 E-score; that for ATGAACGC, 0.0186 E-score; that for AATGTCAG, -0.0957 E-score. Next, TTAGGAAA: -0.022 E-score.

Turning to ATGGCCAC, the binding signal was -0.0651 E-score.

Turning to AGAGATTC, the binding signal was -0.159 E-score.

With AACTCATT, the binding signal was -0.28 E-score. Next, CCTCCGCG: -0.0512 E-score; AGTACTAA: -0.0288 E-score. Next, ACGGTGCC: 0.146 E-score; CATTCCTC: -0.158 E-score. Next, CCAAGGCC: -0.271 E-score.

In the case of GCTCATCC, the binding signal was -0.0262 E-score. For GATCTCAA, the binding signal was -0.0857 E-score. Next, AAACGTTT: -0.22 E-score. The result for ATTCTAAG reads 0.0189 E-score; that for AATCGTTC, -0.106 E-score. The result for AACTTCAG reads -0.122 E-score; that for AACAATAG, -0.258 E-score.

In the case of ACAAAACA, the binding signal is 0.163 E-score. Next, ATGTCAGA: -0.234 E-score; AAACTCCA: -0.0652 E-score; AACAGTTG: -0.253 E-score. Consider TAGCAAAA, for which the binding signal is -0.0243 E-score.

As to CAACTGGA, the binding signal was -0.15 E-score.

Turning to AACGTCGG, the binding signal is -0.0753 E-score.

In the case of CGACCGCG, the binding signal is -0.107 E-score. Turning to GAACAGAC, the binding signal stood at 0.0197 E-score. Regarding ATAAGCAG, the binding signal stood at 0.0346 E-score. Regarding TCGTAAGA, the binding signal was -0.154 E-score. Take GCGAGCGA: the binding signal was found to be 0.0583 E-score. Take CTAGTATA: the binding signal is -0.149 E-score. Next, AACTGAGG: -0.152 E-score.

For the origin of these results see paper PMC10668032.
